Test results published in PubChem BioAssay (NCI).
“And” between values parts separate entries of the source, which are not always exact repeats. Equal entries are not always repeated.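 Step 1: Grow cells in 96-well plates. Step 2: Expose to compound for 48 hours at 5 concentrations. Step 3: Interpolate endpoints linearly; if unreached, use highest concentration. GI50 marks 50% less growth. TGI: total growth inhibition.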

Each molecule was assayed on NCI-H322M lung (assay: NCI-60 cell line screen, 48 h).
In the case of CCOc1cc(NC(C)=O)ccc1C(=O)NN1C(=O)/C(=C/c2cc(OC)c(OC)c(OC)c2)N=C1c1ccccc1, the TGI is reported as over 100 µM.
With Brc1ccccc1-c1ncc(-c2ccccc2)o1 the TGI was over 100 µM.
Work on COc1ccc(C(C#N)NNc2nc(C)cc(=O)[nH]2)cc1OC (stereo unspecified) yielded a TGI of over 100 µM.
In the case of CC(C)=CCC/C(C)=C/CC/C(C)=C/CC/C(C)=C/CC/C(C)=C\CC/C(C)=C/CC/C(C)=C/CC/C(C)=C/Cc1cc(O)ccc1O, the TGI is reported as 32.6 µM.
Molecule COc1ccc(-c2cn(-c3ccccc3)c(-c3ccccc3)n2)cc1OC has a GI50 of 10.6 µM and a TGI of 26.7 µM.
CCO/N=[N+](\[O-])N(CC)CC was tested, and the TGI was over 100 µM.
With CC(C)=CCSC1CC2C(CC1(C)O)C2(C)C (stereo unspecified) the TGI was 30.1 µM and 28.9 µM.
C[C@H](O)C1CC(Cn2nnc3c(N)ncnc32)C1(C)C (stereo partly specified) showed a TGI of over 100 µM.
In the case of Cc1cccc2c1NC(=S)[C@@H]1CCCN1C2=O, the TGI is reported as over 100 µM.
Molecule CCc1cc(O)c(Cl)c(C)c1Cl has a TGI of 37.5 µM.
